Whole data set: some 81,000 sequences, median “one-hybrid fitness for binding NBS DNA” near -0.1, cut for the highest 2% near 0.36. The list shows a part of the results.
B1: Caulobacter ParB omega fusion; a variant is named by its letters at X, in order, B8GW30 (parent)
chain: MESVVVGEPGMSEGRRGLGRGLSALLGEVDAAPAQAPGEQLGGSREAPIEILQRNPDQPRRTFREEDLEDLSNSIREKGVLQPILVRPSPDTAGEYQIVAGERAWRAAQRAGLKTVPIMVRELDDLAVLEIGIIENVQRADLNVLEEALSYKVLMEKFERTQENIAQTIGKSXSHVANXMRLLXLPDEVQSYLVSGELTAXHARAIAAAADPVALAKQIIEGGLSVRETEALARKAPNLSAGKSKGGRPPRVKDTDTQALESDLSSVLGLDVSIDHRGSTGTLTITYATLEQLDDLCNRLTRGI

Variants of: B1
Experiment: one-hybrid fitness for binding NBS DNA (the Noc-binding site; scaled: cognate 1, non-cognate 0); higher = stronger binding
Conditions: with NBS DNA site
Procedure, shortened: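 Caulobacter ParB libraries with four specificity codons randomised were screened by bacterial one-hybrid selection in the E. coli USO strain, using a HIS3 reporter whose site lies 19 bp from the promoter. Selection ran for 48 hours at 37°C on M9 lacking histidine, with 0.1 mM IPTG and 5 mM 3-AT. Plasmids were Illumina-sequenced before and after selection, three replicate libraries were pooled, and variants with under 10 reads were dropped. Fitness is the log change in each variant's read ratio to wild type, rescaled against the cognate and non-cognate sites.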

Row | Variant | one-hybrid fitness for binding NBS DNA
1 | YGGS | ≤ 0.2
2 | CPEV | ≤ 0.2
3 | NVMT | ≤ 0.2
4 | QCYT | 0.503
5 | RKFF | ≤ 0.2
6 | NDHR | ≤ 0.2
7 | PPED | ≤ 0.2
8 | FISY | ≤ 0.2
9 | YTSV | ≤ 0.2
10 | QRHE | 0.32
11 | YMKG | ≤ 0.2
12 | RSEF | ≤ 0.2
13 | SYKG | ≤ 0.2
14 | PPHN | ≤ 0.2
15 | MQVV | ≤ 0.2
16 | SHWD | ≤ 0.2
17 | LMYG | ≤ 0.2
18 | TPAP | ≤ 0.2
19 | YNKC | ≤ 0.2
20 | QYWY | ≤ 0.2
21 | YRAF | ≤ 0.2
22 | LSMC | ≤ 0.2
23 | PGPF | ≤ 0.2
24 | MGFG | ≤ 0.2
25 | AHCC | ≤ 0.2

Row | Variant | one-hybrid fitness for binding NBS DNA
26 | AAFG | ≤ 0.2
27 | LRMM | ≤ 0.2
28 | YLNR | ≤ 0.2
29 | GLLA | ≤ 0.2
30 | VGRR | ≤ 0.2
31 | TPKK | ≤ 0.2
32 | QAVF | ≤ 0.2
33 | HPAT | ≤ 0.2
34 | LQKR | 0.226
35 | CGAD | ≤ 0.2
36 | VFCG | ≤ 0.2
37 | QDLS | ≤ 0.2
38 | GEQT | ≤ 0.2
39 | DTNT | ≤ 0.2
40 | ENKQ | ≤ 0.2
41 | RAKF | ≤ 0.2
42 | GCPD | ≤ 0.2
43 | IVPF | ≤ 0.2
44 | NKQS | ≤ 0.2
45 | APNS | ≤ 0.2
46 | LLQD | ≤ 0.2
47 | QGIM | ≤ 0.2
48 | GWDK | ≤ 0.2
49 | KISV | ≤ 0.2
50 | MSSE | ≤ 0.2

Row | Variant | one-hybrid fitness for binding NBS DNA
51 | MDFC | ≤ 0.2
52 | QHHT | 0.419
53 | HRTS | ≤ 0.2
54 | FKSY | ≤ 0.2
55 | YVSR | ≤ 0.2
56 | RRLI | ≤ 0.2
57 | HPLG | ≤ 0.2
58 | RPSW | ≤ 0.2
59 | IAHT | ≤ 0.2
60 | AICS | ≤ 0.2
61 | GMMW | ≤ 0.2
62 | KLEL | ≤ 0.2
63 | MIPV | ≤ 0.2
64 | RLCW | ≤ 0.2
65 | GNES | ≤ 0.2
66 | VDKV | ≤ 0.2
67 | PFGC | ≤ 0.2
68 | FMKW | ≤ 0.2
69 | TSST | 0.204
70 | AKLC | ≤ 0.2
71 | ANAW | ≤ 0.2
72 | APHV | ≤ 0.2
73 | FEPF | ≤ 0.2
74 | IKNS | ≤ 0.2
75 | LPDG | ≤ 0.2

Row | Variant | one-hybrid fitness for binding NBS DNA
76 | QHQD | ≤ 0.2
77 | MKPR | ≤ 0.2
78 | QNQY | ≤ 0.2
79 | HYKC | ≤ 0.2
80 | QSGT | 0.385
81 | KLFG | ≤ 0.2
82 | KLQG | ≤ 0.2
83 | EAQF | ≤ 0.2
84 | LDSV | ≤ 0.2
85 | RCTK | ≤ 0.2
86 | QRWE | ≤ 0.2
87 | QKCK | ≤ 0.2
88 | HLRM | ≤ 0.2
89 | YKQP | ≤ 0.2
90 | NFHC | ≤ 0.2
91 | LWMG | ≤ 0.2
92 | HTIV | ≤ 0.2
93 | YKDC | ≤ 0.2
94 | ENTE | ≤ 0.2
95 | IMAS | ≤ 0.2
96 | QREW | ≤ 0.2
97 | TIIR | ≤ 0.2
98 | ALYW | ≤ 0.2
